This note sets out measurements from the supplement of paper PMC9446081.

Hit rate of the full screen: of about 39,000 compounds, about 220 (0.56%) showed activity. The list shows a part of the results.
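Further: static incubation at 37 °C against the wild-type strain, values averaged over two biological replicates.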

The subject of this test is Escherichia coli K-12 BW25113. Nature of the test: relative growth (OD600 normalised to plate interquartile mean) (fraction); higher = less growth inhibition, active = 0.2 or less. Conditions: 50 µM; LB; incubation time: overnight (16-24 h).
`COCC(=O)Nc1ccc2c(c1)OC[C@@H](C)N(Cc1ccccc1F)C[C@H](C)[C@@H](OC)CN(C)C2=O`: the relative growth was inactive: 1.01.
On to `C[C@@H]1CN([C@@H](C)CO)C(=O)c2cc(C#Cc3cccnc3)cnc2O[C@@H]1CN(C)Cc1ccc(F)cc1`, for which the relative growth was inactive: 1.
Take `CC(C)NC(=O)Nc1cccc2c1O[C@@H](CN(C)S(=O)(=O)c1ccc(F)cc1)[C@H](C)CN([C@H](C)CO)C2=O`: the relative growth was inactive: 1.
Then `C[C@H](CO)N1C[C@H](C)[C@@H](CN(C)Cc2ccc(Cl)c(Cl)c2)Oc2ccc(NC(=O)Nc3cccc4ccccc34)cc2CC1=O`, with inactive: 0.996; and `CCCC(=O)Nc1ccc2c(c1)C(=O)N(C)C[C@@H](OC)[C@H](C)CN(C(=O)CN1CCOCC1)[C@H](C)CO2`, with inactive: 0.993.
Then `C#CCN([C@H](/C=C/C1CC1)[C@@H](O)Cc1ccccc1)[C@@H](Cc1ccc(-n2cc(C(=O)NO)nn2)cc1)C(=O)OC`, with inactive: 0.984; and `Cl.Cl.OCCN1CCN(CCCN2c3ccccc3Sc3ccc(C(F)(F)F)cc32)CC1`, with inactive: 0.973; and `C[C@@H]1CN([C@@H](C)CO)C(=O)c2cc(NC(=O)Nc3ccc(C(F)(F)F)cc3)ccc2O[C@@H](C)CCCCO[C@H]1CN(C)Cc1ccccc1`, with inactive: 1.01.
For the compound `C[C@H](CO)N1C[C@H](C)[C@@H](CN(C)Cc2ccc(C(=O)O)cc2)OCCCC[C@H](C)Oc2ccc(NC(=O)CCC(F)(F)F)cc2C1=O`, the relative growth was inactive: 1.02.
As for `Cc1cnc(Nc2ccc(F)cc2Cl)nc1-c1c[nH]c(C(=O)N[C@H](CO)c2cccc(Cl)c2)c1`, the relative growth is inactive: 1.02.
With `C[C@@H]1CN([C@@H](C)CO)C(=O)Cc2cc(NC(=O)Cn3cnnn3)ccc2O[C@@H]1CN(C)C(=O)NC1CCCCC1` the figure was inactive: 1.01; with `C[C@H](CO)N1C[C@H](C)[C@H](CN(C)Cc2ccc(Cl)c(Cl)c2)OCCCC[C@H](C)Oc2ccc(NC(=O)c3ccccc3)cc2C1=O`, inactive: 0.995.
For `CCCN1C[C@@H](C)[C@@H](OC)CN(C)C(=O)c2cc(NS(=O)(=O)c3cn(C)cn3)ccc2OC[C@H]1C`, the relative growth was inactive: 1.
With `C[C@@H]1CN([C@@H](C)CO)C(=O)c2cc(NC(=O)c3ccccc3)ccc2O[C@@H](C)CCCCO[C@@H]1CN(C)Cc1ccc(C(F)(F)F)cc1` the figure was inactive: 0.996; with `COc1ccc(S(=O)(=O)Nc2ccc3c(c2)C(=O)N([C@@H](C)CO)C[C@H](C)[C@H](CN(C)S(=O)(=O)c2ccc(C)cc2)O3)cc1`, inactive: 1.01; with `Cc1noc(C)c1S(=O)(=O)N(C)C[C@H]1Oc2ccc(NC(=O)c3ccncc3)cc2CC(=O)N([C@H](C)CO)C[C@@H]1C`, inactive: 0.999.
For `C[C@H](CO)N1C[C@H](C)[C@H](CN(C)C(=O)Nc2cccc3ccccc23)Oc2ccc(NC(=O)Nc3cccc4ccccc34)cc2CC1=O`, the relative growth was inactive: 0.989.
Then `O=C([C@@H]1[C@@H](CO)[C@@H]2Cn3c(cccc3=O)[C@@H]2N1CC1CCCC1)N1CCOCC1`, with inactive: 1.05.
With `O=C(Nc1ccc(Cl)cc1)c1sc2ccccc2c1Cl` the figure was inactive: 0.993; with `COc1ccc(NC(=O)Nc2ccc3c(c2)C(=O)N([C@@H](C)CO)C[C@H](C)[C@@H](CN(C)Cc2ccc(Oc4ccccc4)cc2)O3)cc1`, inactive: 0.904; with `CNc1nc(OC)cc(OC)n1`, inactive: 0.995.
For the compound `C[C@@H](NCc1cnc(N(C)C)s1)C(N)=O`, the relative growth is inactive: 1.03.
With `CC(C)CC#Cc1ccc2c(c1)O[C@@H](CN(C)C(=O)c1cccnc1)[C@H](C)CN([C@H](C)CO)S2(=O)=O` the figure was inactive: 1.01.
With `Cc1noc(C)c1S(=O)(=O)Nc1ccc2c(c1)CC(=O)N([C@H](C)CO)C[C@@H](C)[C@@H](CN(C)S(C)(=O)=O)O2` the figure was inactive: 0.995.
Turning to `Cc1ccc(S[C@]2(C(=O)NC3CC3)CC(=O)N(Cc3ccccc3Cl)[C@@H]2c2ccc(CO)cc2)cc1`, the relative growth was inactive: 1.02.
For `COc1ccc(NC(=O)Nc2ccc3c(c2)CC(=O)N([C@@H](C)CO)C[C@@H](C)[C@H](CN(C)C(=O)Nc2ccc(C(F)(F)F)cc2)O3)cc1`, the relative growth is inactive: 1.02.
Then `C[C@H](CO)N1C[C@H](C)[C@H](CN(C)Cc2ccc(C(F)(F)F)cc2)OCCCC[C@H](C)Oc2ccc(NC(=O)c3ccncc3)cc2C1=O`, with inactive: 0.935; and `COc1ccc(S(=O)(=O)N(C)C[C@@H]2OCCCC[C@@H](C)Oc3ccc(NC(=O)c4ccccc4)cc3C(=O)N([C@H](C)CO)C[C@H]2C)cc1`, with inactive: 1.01.
Regarding `COc1ccc(NC(=O)N(C)C[C@H]2Oc3ccc(NS(=O)(=O)c4cn(C)cn4)cc3CC(=O)N([C@H](C)CO)C[C@H]2C)cc1`, the relative growth was inactive: 1.04.
With `C[C@@H]1CN([C@H](C)CO)C(=O)Cc2cc(NS(C)(=O)=O)ccc2O[C@@H]1CN(C)C` the figure was inactive: 0.976; with `Cc1noc(C)c1NC(=O)N(C)C[C@@H]1Oc2c(NS(=O)(=O)c3cn(C)cn3)cccc2C(=O)N([C@H](C)CO)C[C@@H]1C`, inactive: 1.01.
Turning to `COc1ccc(CN(C)C[C@H]2OCCCC[C@@H](C)Oc3ccc(NC(=O)c4ccncc4)cc3C(=O)N([C@H](C)CO)C[C@@H]2C)cc1`, the relative growth was inactive: 1.01.
With `COC(=O)Nc1nc2ccc(Sc3ccccc3)cc2[nH]1` the figure was inactive: 0.879; with `Cc1ccc(S(=O)(=O)Nc2ccc3c(c2)C(=O)N([C@H](C)CO)C[C@@H](C)[C@H](CN(C)S(=O)(=O)c2ccc(C)cc2)OCCCC[C@@H](C)O3)cc1`, inactive: 1.01.
Then `C[C@H]1CN([C@@H](C)CO)C(=O)c2cc(C#CCN(C)C)cnc2O[C@@H]1CN(C)C(=O)c1cnccn1`, with inactive: 1; and `COc1ccc(NC(=O)Nc2cccc3c2O[C@@H](CN(C)Cc2ccc(Oc4ccccc4)cc2)[C@@H](C)CN([C@H](C)CO)C3=O)cc1`, with inactive: 0.972; and `COc1ccc(NC(=O)Nc2ccc3c(c2)C(=O)N([C@@H](C)CO)C[C@H](C)[C@@H](CN(C)C(=O)Nc2ccc(OC)cc2)OCCCC[C@H](C)O3)cc1`, with inactive: 1.02.
Then `C[C@@H]1CN([C@@H](C)CO)C(=O)c2cc(NC(=O)CCCCCC(=O)Nc3ccccc3N)ccc2O[C@@H](C)CCCCO[C@@H]1CN(C)C(=O)Nc1ccc(C(F)(F)F)cc1`, with inactive: 1.01; and `O=C(O)c1cn(C2CC2)c2cc(N3CCNCC3)c(F)cc2c1=O`, with active: 0.0478; and `O=C(C[C@H]1C[C@H]2c3cc(NS(=O)(=O)c4ccccc4)ccc3O[C@H]2[C@@H](CO)O1)NCC(F)(F)F`, with inactive: 1.03.
As for `O=C(NCCCN1CCOCC1)[C@@H]1[C@@H](CO)[C@@H]2Cn3c(cccc3=O)[C@H]1N2C(=O)NC1CCCC1`, the relative growth is inactive: 1.01.
Then `CC(=O)c1cc(S(=O)(=O)c2ccc(C)cc2)c(CC[C@H](COC(=O)NCCCCCC(=O)NO)NC(=O)Nc2nnc[nH]2)o1`, with inactive: 1.02.
With `Cc1ccc(S(=O)(=O)Nc2ccc3c(c2)C(=O)N([C@@H](C)CO)C[C@@H](C)[C@@H](CN(C)C(=O)Nc2ccc(C(F)(F)F)cc2)O3)cc1` the figure was inactive: 1.01; with `CNC[C@@H]1OCCCC[C@H](C)Oc2ccc(NS(=O)(=O)c3c(C)noc3C)cc2C(=O)N([C@H](C)CO)C[C@@H]1C`, inactive: 1; with `CCS(=O)(=O)C1CNC1`, inactive: 1.03.
Turning to `CC(C)NC(=O)Nc1ccc2c(c1)C(=O)N([C@@H](C)CO)C[C@H](C)[C@@H](CN(C)S(=O)(=O)c1ccc(F)cc1)O2`, the relative growth is inactive: 0.972.
Then `O=C(C[C@H]1CC[C@@H]2[C@H](COC[C@H](O)CN2Cc2cc(F)ccc2F)O1)N[C@H]1CCN(Cc2ccccc2)C1`, with inactive: 0.977; and `COc1cccc(C(=O)Nc2ccc3c(c2)C(=O)N(C)[C@@H]2CC[C@@H](CC(=O)NCC4CC4)O[C@@H]2CO3)c1`, with inactive: 1.02; and `CCS(=O)(=O)N1CC[C@]2(CC1)CN([C@H](CO)c1[nH]c3cc(ccc3c12)OC)C(=O)Nc1c(noc1C)C`, with inactive: 0.978.
With `C[C@H]1CN([C@@H](C)CO)C(=O)Cc2cc(NC(=O)Cc3cn(C)c4ccccc34)ccc2O[C@@H]1CN(C)S(C)(=O)=O` the figure was inactive: 1.02; with `CN(C)CCN1CCN(C)C2(CCN(C(=O)[C@H]3CCCO3)CC2)C1=O`, inactive: 1.
Consider `C[C@H](CO)N1C[C@H](C)[C@@H](CN(C)S(=O)(=O)c2ccc(Cl)cc2)OCCCC[C@H](C)Oc2ccc(NS(=O)(=O)c3ccc(Cl)cc3)cc2C1=O`, for which the relative growth was inactive: 1.05.
With `C[C@H]1CN([C@@H](C)CO)C(=O)c2cccc(NC(=O)Nc3cccc4ccccc34)c2O[C@@H]1CN(C)C(=O)Nc1ccc(C(F)(F)F)cc1` the figure was inactive: 0.854; with `C[C@@H]1CN([C@@H](C)CO)C(=O)c2cc(NC(=O)CCC(F)(F)F)ccc2O[C@@H]1CN(C)Cc1ccc(Oc2ccccc2)cc1`, inactive: 1; with `C=CCN1C(=O)[C@@]2(O[C@@H](CCO)[C@H]([Si](C)(C)c3ccc(OC)cc3)[C@H]2C)c2cc(N3C(=O)c4cccc5cccc3c45)ccc21`, inactive: 1.06.
With `COc1ccc(C#Cc2ccc3c(c2)[C@]2(C(=O)N3)[C@H](c3ccccc3OCCO)N3[C@H](c4ccccc4)[C@H](c4ccccc4)OC(=O)[C@H]3[C@@H]2C(=O)O)cc1` the figure was inactive: 0.992.
With `COc1ccc(S(=O)(=O)N(C)C[C@@H]2Oc3c(NC(=O)c4cc(C)nn4C)cccc3C(=O)N([C@H](C)CO)C[C@@H]2C)cc1` the figure was inactive: 0.994; with `CN1CCN(C(=O)C[C@H]2CC[C@H]3[C@@H](COC[C@H](O)CN3C(=O)C3CC3)O2)CC1`, inactive: 0.924; with `C[C@H](CO)N1C[C@H](C)[C@@H](CN(C)Cc2ccc(Oc3ccccc3)cc2)Oc2ccc(NC(=O)c3ccncc3)cc2C1=O`, inactive: 0.976.
